Screen size: about 350,000 compounds; about 31,000 (8.9%) were called active. This list was built around the results that the source calls inconclusive (neither active nor inactive); the mix of calls is not that of the screen. The call rests on the fitted dose curve; in most records, active means well fitted inhibition curve with a large enough effect; inconclusive means small, poorly fitted or top-dose-only effect; inactive means no such curve, though single readings can be large or run the other way. Where the call is inconclusive, the potency comes from a doubtful curve fit.
molecular target: Histone-lysine N-methyltransferase EHMT2 (Homo sapiens) (UniProt Q96KQ7); assay: qHTS Assay for Inhibitors of Histone Lysine Methyltransferase G9a; settings: G9a H3K9 monomethylation, AlphaScreen, 2 h; activity, negative = inhibition: at 59 µM (top of the series) unless noted; further: nearly all actives have a fitted effect of over 75% in size
Summary of the method: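 Chemiluminescent proximity detection of H3K9 monomethylation, read after 10 min bead incubation in the dark. Reaction: 20 nM G9a, 500 nM biotin-H3K9 peptide, 20 uM SAM cofactor, 2 h, room temperature, following 15 min enzyme-compound preincubation.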
On the % scale 0 is the no-effect control and ±100 the full control effect; potency means the concentration at half of the fitted maximal effect; tags describe the fitted curve by direction and shape.

Sequence of UniProt Q96KQ7 (Q96KQ7 whole entry, looked up): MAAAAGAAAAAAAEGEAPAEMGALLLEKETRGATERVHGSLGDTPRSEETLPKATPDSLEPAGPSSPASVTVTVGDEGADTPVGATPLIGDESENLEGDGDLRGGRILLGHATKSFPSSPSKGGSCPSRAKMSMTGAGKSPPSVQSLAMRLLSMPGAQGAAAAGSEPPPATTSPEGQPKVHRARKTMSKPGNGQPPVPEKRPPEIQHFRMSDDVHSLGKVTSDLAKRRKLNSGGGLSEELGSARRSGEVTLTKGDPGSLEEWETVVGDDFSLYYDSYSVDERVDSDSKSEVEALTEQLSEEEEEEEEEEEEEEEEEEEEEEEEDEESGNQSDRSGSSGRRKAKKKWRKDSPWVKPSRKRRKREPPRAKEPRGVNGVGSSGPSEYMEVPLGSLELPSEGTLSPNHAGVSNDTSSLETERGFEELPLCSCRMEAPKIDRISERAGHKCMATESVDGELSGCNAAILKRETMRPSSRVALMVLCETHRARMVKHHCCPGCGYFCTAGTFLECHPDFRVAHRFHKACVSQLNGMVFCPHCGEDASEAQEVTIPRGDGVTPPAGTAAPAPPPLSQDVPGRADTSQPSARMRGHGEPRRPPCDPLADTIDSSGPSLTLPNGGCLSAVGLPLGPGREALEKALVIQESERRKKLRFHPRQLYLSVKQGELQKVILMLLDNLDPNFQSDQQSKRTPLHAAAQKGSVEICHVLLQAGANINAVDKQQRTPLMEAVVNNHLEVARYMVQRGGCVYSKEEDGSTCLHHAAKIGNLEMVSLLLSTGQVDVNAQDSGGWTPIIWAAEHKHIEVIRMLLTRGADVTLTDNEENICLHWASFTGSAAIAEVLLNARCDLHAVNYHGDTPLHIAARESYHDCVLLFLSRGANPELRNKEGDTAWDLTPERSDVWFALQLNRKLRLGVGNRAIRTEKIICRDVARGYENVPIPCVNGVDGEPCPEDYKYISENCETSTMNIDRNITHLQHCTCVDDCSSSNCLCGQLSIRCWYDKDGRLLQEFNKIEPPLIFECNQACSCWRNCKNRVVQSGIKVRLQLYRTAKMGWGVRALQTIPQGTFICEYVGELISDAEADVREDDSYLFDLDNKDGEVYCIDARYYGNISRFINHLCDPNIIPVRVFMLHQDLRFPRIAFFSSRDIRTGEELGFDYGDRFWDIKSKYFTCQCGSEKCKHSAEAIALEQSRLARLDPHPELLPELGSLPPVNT

Compound | activity, negative = inhibition | Potency
CN(C)C(=O)c1ccc(-c2cc(NCc3ccccc3)ncn2)cc1 | inactive: -6.51% [at 0.501 µM] | 
C/C(=N/NC(=O)c1cc2ccccc2cc1O)c1ccco1 | inactive: -26.1% [at 102 µM] | 
CCOC(=O)/C=C1\CN(CCC(C)C)S(=O)(=O)c2ccccc21 |  | active: 35.5 µM
CCOc1ccc(NC(=O)c2ccc3c(c2)C(=O)N(Cc2ccncc2)C3=O)cc1 |  | inconclusive: 63.1 µM [inhibitor, partial curve, poor fit]
O=C(O)c1oc2ccccc2c1CSc1ccccn1 |  | inconclusive: 89.1 µM [inhibitor, single point]
Cc1nnc(SCC(=O)Nc2ccc3c(c2)OCCO3)n1CC1CCCO1 (stereo not given) | inactive: 21.7% | 
O=C(NC1CCN(Cc2ccc(Cl)c(Cl)c2)CC1)c1ccccc1 |  | inconclusive: 89.1 µM [inhibitor, single point]
CC1CN(c2ncnc3c2oc2ccccc23)CC(C)O1 (stereo not given) |  | active: 50.1 µM
Cc1ccc(-c2nnc3ccc(SCC(=O)N4CCCc5ccccc54)nn23)cc1 |  | inconclusive: 89.1 µM [inhibitor, single point]
ON=Cc1cccn1-c1ccccc1 | inactive: -36.3% | 
Nc1cc2nn(-c3ccccc3)nc2cc1Cl |  | inconclusive: 31.6 µM [inhibitor, single point]
NC(CSC12CC3CC(CC(C3)C1)C2)C(=O)O (stereo not given) | inconclusive: -95.1% [inhibitor] | 
COc1ccc(/C=C/C(=O)Oc2ccc(/C=N/NC(=O)COc3c(C)cccc3C)cc2)cc1 | inactive: 3.89% | 
CCN(CCO)c1ccc(NC(=S)Nc2cccc(S(=O)(=O)N(C)C)c2)cc1 |  | inconclusive: 31.6 µM [inhibitor, single point]
COc1ccc(-c2nnc(NC(=O)C(C)C)o2)cc1 |  | inconclusive: 79.4 µM [inhibitor, single point]
COc1cc(C(=O)N2CCN(c3cc(Cl)ccc3Cl)CC2)cc(OC)c1OC |  | inconclusive: 70.8 µM [inhibitor, single point]
COc1ccc(-c2noc(N3CCCC(C(=O)Nc4ccc(C(C)=O)cc4)C3)n2)cc1 (stereo not given) | inactive: 80.6% [at 102 µM] | 
COc1cc(OC)c(C2N(c3ccccn3)C(=O)C3CCCN32)cc1OC (stereo not given) |  | inconclusive: 63.1 µM [inhibitor, partial curve, poor fit]
CS(=O)(=O)N1CCc2cc(-c3csc(NC(=O)C(c4ccccc4)c4ccccc4)n3)ccc21 |  | inconclusive: 5.62 µM [inhibitor, single point]
Cc1ccc(NC(=O)CCC(=O)OCC(=O)c2ccc(Oc3ccc([N+](=O)[O-])cc3)cc2)cc1C | inactive: -0.98% | 
Cc1ccc(C)c(N2CCN(CCCNC(=O)c3cnn(-c4ccccc4)c3C3CCN(C(=O)OC(C)(C)C)CC3)CC2)c1 |  | inconclusive: 8.91 µM [inhibitor, partial curve]
Nc1cccc(-n2cccc2)c1 |  | inconclusive: 31.6 µM [inhibitor, partial curve, poor fit]
O=C(COC(=O)CCc1nc2ccccc2c(=O)[nH]1)Nc1ccc2c(c1)OCO2 |  | active: 56.2 µM
COc1cccc(C2/C(=C(\O)c3ccc4c(c3)OCCO4)C(=O)C(=O)N2CCN(C)C)c1 (stereo not given) |  | inconclusive: 50.1 µM [inhibitor, partial curve, poor fit]

Compound | activity, negative = inhibition | Potency
O=C(Nc1ccccc1N1CCCC1)C1CCN(C(=O)c2ccc(F)cc2)CC1 |  | active: 50.1 µM
CCOC(=O)c1c(C)[nH]c(C2=NNC(=Nc3ccccc3)SC2)c1C |  | active: 44.7 µM
COc1ccc(-n2nc3c(c2NC(=O)C2CCCC2)CS(=O)C3)cc1 (stereo not given) | inactive: -9.46% [at 102 µM] | 
Cc1cccc(-c2noc(-c3ccccc3OCC(=O)Nc3ccccc3[N+](=O)[O-])n2)c1 |  | inconclusive: 12.6 µM [inhibitor, partial curve, poor fit]
O=S(=O)(c1ccccc1)c1nc(-c2ccccc2)oc1N1CCCCC1 |  | active: 22.4 µM
COc1ccccc1Nc1c2c(nc3ccc(NC(=O)c4ccccc4F)cc13)CCCC2 |  | inconclusive: 35.5 µM [inhibitor, single point]
COc1ccc(C2=CC(=O)C=CC2=O)cc1 |  | active: 1.26 µM
Cc1cc2cc(CNC(=O)c3ccco3)ccc2n1C | inconclusive: -74.3% [inhibitor] | 
Cc1c(NC(=O)c2cccc(-c3cc4ccccc4oc3=O)c2)cccc1-c1nc2ncccc2o1 |  | inconclusive: 10 µM [inhibitor, partial curve, poor fit]
Cc1ccc(NC(=O)CSc2nnc(-c3ccncc3)n2C)cc1S(=O)(=O)N1CCOCC1 | inactive: 17.3% [at 102 µM] | 
CCCn1cnc2c(sc3nc4c(cc32)CSC(C)(C)C4)c1=O | inactive: -1.21% [at 102 µM] | 
O=C(Nc1scc(-c2cccs2)c1C(=O)O)c1cccs1 |  | inconclusive: 89.1 µM [inhibitor, partial curve, poor fit]
CCOC(=O)c1ccc(NC(=O)C(C)Sc2nc(=O)cc(N)n2CCc2ccccc2)cc1 (stereo not given) | inactive: -32.8% | 
CCC1CCCN1Cn1cnc2c([nH]c3ccc(Cl)cc32)c1=O (stereo not given) |  | inconclusive: 89.1 µM [inhibitor, single point]
O=C(Nc1ccc2c(c1)OCO2)C1CC(=O)N(CCc2ccccc2)C1 (stereo not given) | inactive: 16.5% | 
O=S(=O)(Cc1ccccc1)Nc1cccc(Br)c1 |  | inconclusive: 89.1 µM [inhibitor, single point]
C=CCn1c(SCCCC)nc(O)cc1=O |  | inconclusive: 100 µM [inhibitor, single point]
CCOC(=O)c1[nH]cnc1C(=O)Nc1ccccn1 |  | inconclusive: 56.2 µM [inhibitor, partial curve, poor fit]
COc1ccc(F)cc1S(=O)(=O)Nc1ccc2c(c1)CCCN2C(=O)c1cccs1 | inactive: -3.61% [at 12.7 µM] | 
N=c1sccn1CC(=O)Nc1ccc(SC(F)F)cc1 |  | active: 50.1 µM
COc1ccc(-c2noc(CNC(=O)c3ccoc3C)n2)cc1OC | inactive: 15.3% [at 102 µM] | 
Cc1ccc(OCC(=O)N(C)CC(=O)Nc2ccc(N3CCOCC3)cc2)cc1 | inactive: 4.49% [at 0.501 µM] | 
Cc1ccc(CNS(=O)(=O)c2ccc(CN3C(=O)c4cccnc4C3=O)cc2)o1 | inactive: -5.93% [at 0.0925 µM] | 
CN(C)CCCCCN(C)Cc1cc2ccccc2o1 |  | inconclusive: 28.2 µM [inhibitor, full curve]

Compound | activity, negative = inhibition | Potency
Cc1cc(=O)oc(C)c1C(=O)NCc1cccnc1 |  | inconclusive: 28.2 µM [inhibitor, single point]
CCC(=O)Nc1nnc(Sc2ccc(N(C)C)cc2)s1 |  | inconclusive: 17.8 µM [inhibitor, single point]
CCn1c(=O)n(CC)c2cc(N3CCCC3)c(NC(=O)c3ccccc3)cc21 |  | active: 39.8 µM
Cc1ccc(C)c(NC(=O)N2CCN3CCCCC3C2)c1 (stereo not given) |  | inconclusive: 8.91 µM [inhibitor, single point]
O=C(Cc1cccs1)Nc1ccc(-c2nc3ccccc3[nH]2)cc1 | inactive: -27.5% | 
Cc1ccc(C)c(-n2c(CNC(=O)c3ccco3)nnc2SCC(=O)N2CCc3ccccc32)c1 | inactive: 38.9% [at 12.7 µM] | 
OC(CNCc1ccccc1)Cn1ccc2ccccc21 (stereo not given) |  | inconclusive: 28.2 µM [inhibitor, single point]
COC(=O)CC1C(C)(C)C(=O)C2CC3C4=CC(=O)OC(c5ccoc5)[C@]4(C)CCC3[C@@]1(C)C2=O (stereo not given in full) | inactive: -27.6% [at 2.33 µM] | 
O=C1N=c2ccccc2=C1c1sc(=S)n(-c2ccc(O)cc2)c1O |  | inconclusive: 79.4 µM [inhibitor, single point]
O=C(Nc1ccc(F)cc1F)c1cc(S(=O)(=O)N2CCCCC2)c[nH]1 |  | inconclusive: 35.5 µM [inhibitor, partial curve, poor fit]
CC(=O)c1cccc(NC(=O)Cn2nc(-c3ccc(Cl)cc3)ccc2=O)c1 |  | inconclusive: 0.251 µM [inhibitor, partial curve, poor fit]
C=CCOc1cccc(C2/C(=C(/O)c3ccc(F)cc3)C(=O)C(=O)N2CCN2CCOCC2)c1 (stereo not given) |  | inconclusive: 11.2 µM [inhibitor, partial curve, poor fit]
Cc1ccc2nc(N(CCCN(C)C)C(=O)c3ccc4ncsc4c3)sc2c1 |  | active: 14.1 µM
COc1ccc(C)cc1NCc1ccc([N+](=O)[O-])cc1 | inactive: -0.766% [at 0.501 µM] | 
O=C(COC(=O)c1cnccn1)c1ccc2c(c1)CCCC2 |  | inconclusive: 17.8 µM [inhibitor, partial curve]
CC(Oc1ccc(Cl)cc1)c1ccc(C#N)c(=O)[nH]1 (stereo not given) | inactive: -3.71% [at 12.7 µM] | 
Cc1ccc(NC(=O)CSc2nc3ccccc3c(=O)n2Cc2cccs2)cc1 | inactive: 29.2% | 
O=C1CS(=O)(=O)C2(C(=O)N(Cc3ccccc3)c3ccccc32)N1c1ccc(F)c(Cl)c1 (stereo not given) |  | inconclusive: 10 µM [inhibitor, partial curve, poor fit]
CC(C)n1c(SCC(N)=O)nc2c1c(=O)[nH]c(=O)n2C |  | inconclusive: 28.2 µM [inhibitor, single point]
COc1ccc(O[C@H]2C=C[C@@H](c3ccccc3)O[C@@H]2COC(=O)CC/C(C)=N/O[C@H](C)c2cn([C@@H]3COC[C@H]3O)nn2)cc1 |  | inconclusive: 79.4 µM [inhibitor, single point]
Cn1c(SCC(=O)Nc2sc3c(c2C#N)CCC3)nnc1C1COc2ccccc2O1 (stereo not given) |  | inconclusive: 70.8 µM [inhibitor, partial curve, poor fit]
O=C(Oc1ccccc1N1C(=O)C2CCCCC2C1=O)c1ccccc1F (stereo not given) |  | inconclusive: 0.158 µM [inhibitor, full curve, poor fit]

Reference: PubChem BioAssay AID504332 (National Center for Advancing Translational Sciences (NCATS), 2011)
